From patent US20150376271 (published 2015)

Target: T1, VEGFA-165 (human, UniProt P15692)
T1 chain: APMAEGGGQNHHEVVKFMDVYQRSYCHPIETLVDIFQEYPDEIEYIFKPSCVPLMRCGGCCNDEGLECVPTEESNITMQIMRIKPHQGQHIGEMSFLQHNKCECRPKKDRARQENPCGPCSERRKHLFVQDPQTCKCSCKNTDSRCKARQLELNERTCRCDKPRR
Test: SPR, 25C

Kd: 1.56 pM
B1: aflibercept (protein)
chain: SDTGRPFVEMYSEIPEIIHMTEGRELVIPCRVTSPNITVTLKKFPLDTLIPDGKRIIWDSRKGFIISNATYKEIGLLTCEATVNGHLYKTNYLTHRQTNTIIDVVLSPSHGIELSVGEKLVLNCTARTELNVGIDFNWEYPSSKHQHKKLVNRDLKTQSGSEMKKFLSTLTIDGVTRSDQGLYTCAASSGLMTKKNSTFVRVHEK[human IgG1 Fc left out here]
